Columns and labels:
[1] = molecular target: T1, membrane-bound B Lymphocyte Stimulator on U937 plasma membrane preparations (human, UniProt Q9Y275 1-285); assay: phage ELISA
T1 construct: Natural protein in plasma membrane fractions of the human cell line U937 coated on ELISA plates; also called U937 plasma membranes; U937 membranes

[2] = molecular target: T2, B Lymphocyte Stimulator, soluble form (human) (human, UniProt Q9Y275 partial chain, biotinylated with NHS-biotin where used as biotinylated B Lymphocyte Stimulator); assay: phage competition ELISA
T2 construct: Coated on plastic, captured on streptavidin plates, amine-coupled to a CM5 chip or free in solution, depending on the assay; also called BLyS; immobilized B Lymphocyte Stimulator

[3] = molecular target: T3, biotinylated B Lymphocyte Stimulator, soluble form (human, UniProt Q9Y275 partial chain, biotinylated with NHS-biotin, molar ratio 20:1 biotin:protein); assay: phage scFv, receptor binding inhibition on IM9 cells
T3 construct: also called bio-B Lymphocyte Stimulator; free B Lymphocyte Stimulator
Description: Fifty-five μl of each appropriate phage supernatant was added to each well and the final volume in each well was 65 μl. Plates were then incubated at room temperature for 30 minutes.
Plates were washed three times in PBST and three times in PBS, tapped dry and 50 μl of streptavidin-Delfia (Wallac) was added to each well at 1:1000 dilution in the Manufacturer's assay buffer. The plates were then incubated at room temperature for 1 hour and washed six times in Delfia wash solution (Wallac). After tapping the plates dry, 100 μl per well of Delfia enhancement solution (Wallac) was added. The plates were gently tapped to encourage micelle formation, incubated at room temperature for 10 minutes, and fluorescence read on a Wallac 1420 workstation at […].

Row | Binder | binding result [1] | binding result [2] | binding result [3]
1 | I008C12 (scFv) scFv: [about 100 residues omitted here]FNPTYDILTGYYIGGYFQHWGQGTMVTVSSGGGGSGGGGSGGGGSQSVLTQPASVSGSPGQSITISCTGTSSDVGGYNYVSWYQQHPGKAPKLMIYEGSKRPSGVSNRFSGSKSGNTASLTISGLQAEDEADYYCSSYTTRSTRVFGGGTQLTVLG [I008C12, listing 1 of 2 here] | binds | binds | –
2 | I008C12 (scFv) scFv: [about 100 residues omitted here]FNPTYDILTGYYIGGYFQHWGQGTMVTVSSGGGGSGGGGSGGGGSQSVLTQPASVSGSPGQSITISCTGTSSDVGGYNYVSWYQQHPGKAPKLMIYEGSKRPSGVSNRFSGSKSGNTASLTISGLQAEDEADYYCSSYTTRSTRVFGGGTQLTVLG [I008C12, listing 2 of 2 here] | – | – | binds
